The supplement of paper PMC6135742
Where a name gives a salt, the structure may show the parent alone. ± gives the standard deviation of the averaged measurements. Over roughly 2,600 compounds, “MBP+ mature oligodendrocyte number relative to DMSO vehicle control” has its median near -0.34; the highest 2% begin near 13. Some of the results follow.

tested on: jimpy (Plp1 jimpy) mouse iPSC-derived oligodendrocyte progenitor cells; assay: MBP+ mature oligodendrocyte number relative to DMSO vehicle control (SDs above negative control mean); higher = more surviving jimpy oligodendrocytes (rescue); details: 10 µM; 3 days
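Further: 10 µM single dose with 3-day oligodendrocyte differentiation.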

| SMILES | MBP+ mature oligodendrocyte number |
| --- | --- |
| Cc1c(-c2ccc(-c3ccccc3F)cc2)nc2ccc(F)cc2c1C(=O)O [Brequinar sodium salt hydrate] | 2.47 |
| NC(=O)c1ccccc1 [Benzamide] | -1.22 |
| CN(Cc1cc(Br)cc(Br)c1N)C1CCCCC1 [Bromhexine HCl] | 12.3 |
| C[C@H](CS)C(=O)N1CCC[C@H]1C(=O)O [Captopril] | -0.548 ± 0.12 |
| Cn1cnc2c(F)c(Nc3ccc(Br)cc3Cl)c(C(=O)NOCCO)cc21 [Selumetinib (AZD6244)] | -2.51 |
| Nc1nc(N)c2nc(-c3cccc(O)c3)c(-c3cccc(O)c3)nc2n1 | -1.99 |
| CN1CCN(C(=O)c2cc3cc(Cl)ccc3[nH]2)CC1 | 1.14 |
| CCCN(CC1CC1)c1nc(C)nc(Nc2c(Cl)cc(Cl)cc2Cl)c1Cl | < -4.47 |
| COc1ccc(CNc2nc(N3CCC[C@H]3CO)ncc2C(=O)NCc2ncccn2)cc1Cl [Avanafil] | 7.92 |
| Nc1ncnc2c1ncn2C1CCCC1 [9-cyclopentyladenine] | -1.18 |
| O=C1NC(c2cccc([N+](=O)[O-])c2)=CCN1c1ccccc1O [Icilin] | 3.07 |
| COc1cc(N)c(Cl)cc1C(=O)OCCN1CCCCC1 | -3.81 |
| Cc1c(Nc2ncccc2C(=O)O)cccc1C(F)(F)F [Flunixin Meglumin] | 1.85 |
| CC[C@H](c1ccc(O)cc1)[C@@H](CC)c1ccc(O)cc1 [Hexestrol] | -0.0525 |
| CCCCCC(O)CCCC(=O)O (stereo not given) [5-hydroxydecanoic acid sodium] | 0.136 |
| OC[C@@H](O)CN1CCN(c2ccccc2)CC1 [Levodropropizine] | 1.34 |
| N#CC1(c2ccc(NC(=O)c3cccnc3NCc3ccncc3)cc2)CCCC1 [Apatinib] | 2.86 |
| Cc1ccc(C(=O)Cn2c3c(sc2=N)CCCC3)cc1 [Pifithrin-? (PFT?)] | 17 |
| CC(C)(C)NC(=O)[C@H]1CC[C@H]2[C@@H]3CC[C@H]4NC(=O)C=C[C@]4(C)[C@H]3CC[C@]12C [Finasteride] | 2.12 |
| C=CC[N+]1([C@H]2C[C@H]3[C@@H]4CC[C@H]5C[C@H](O)[C@@H](N6CCOCC6)C[C@]5(C)[C@H]4CC[C@]3(C)[C@H]2OC(C)=O)CCCC1 [Rocuronium Bromide] | 1.42 |
| Cc1ccc(C(=O)N(CCCN)[C@@H](c2oc3cc(Cl)ccc3c(=O)c2Cc2ccccc2)C(C)C)cc1 | < -4.81 |
| Nc1nc(N)c2nc(-c3ccccc3)c(N)nc2n1 [Triamterene] | -1.85 ± 0.21 |
| C=C1CC[C@H](O)C/C1=C/C=C1\CCC[C@]2(C)[C@@H]([C@H](C)/C=C/[C@H](C)C(C)C)CC[C@@H]12 [Vitamin D2] | 21.5 |
| CCCCOc1ccc(C(=O)CCN2CCCCC2)cc1 [Dyclonine HCl] | -1.91 |
| O=C(O)COc1ccc(C(=O)c2cccs2)c(Cl)c1Cl [Tienilic acid] | -0.904 |
| C=C1C(=O)O[C@H]2[C@H]1CC/C(C)=C/CC[C@@]1(C)O[C@@H]21 [(-)-Parthenolide] | < -4.81 |
| C=C1C(=O)O[C@H]2[C@H]1CC/C(C)=C/CC[C@@]1(C)O[C@@H]21 [Parthenolide] | < -3.97 |

| SMILES | MBP+ mature oligodendrocyte number |
| --- | --- |
| COc1ccc(CCn2nnnc2C2(c3ccc(C)cc3)CC2)cc1 [Mephetyl tetrazole] | 1.5 |
| COc1ccc(CCC(=O)Nc2nc3ccc(Cl)cc3s2)cc1OC | 6.4 |
| CN1[C@@H]2CC[C@H]1C[C@@H](OC(=O)C(O)c1ccccc1)C2 (mixture of isomers) [DL-Homatropine hydrobromide] | 3.48 |
| O=[N+]([O-])c1cn2c(n1)OC[C@@H](OCc1ccc(OC(F)(F)F)cc1)C2 | 0.545 |
| Cn1nnc2c(C(N)=O)ncn2c1=O [Temozolomide] | 1.16 |
| CC(C)(C)CC(C)(C)c1ccc(OCCOCC[N+](C)(C)Cc2ccccc2)cc1 [Benzethonium Chloride] | < -6.35 |
| CC(C)NCC(O)COc1cccc2[nH]ccc12 (stereo not given) [Pindolol] | -0.0098 |
| CC(CN(C)C)CN1c2ccccc2CCc2ccccc21 (stereo not given) [Trimipramine maleate] | -3.5 |
| Cn1c(N2CCCCS2(=O)=O)nc(C(=O)NCc2ccc(F)cc2)c(O)c1=O | < -6.7 |
| COC(=O)[C@H]1[C@H]2C[C@H]3c4[nH]c5ccccc5c4CCN3C[C@H]2CC[C@@H]1O [Rauwolscine hydrochloride] | -0.675 |
| COC(=O)C(C)(N)Cc1ccc(O)cc1 (racemic) [alpha-Methyl-DL-tyrosine methyl ester hydrochloride] | -1.15 |
| Nc1ncnc2c1ncn2[C@@H]1O[C@@H]2COP(=O)(O)O[C@H]2[C@H]1O [Adenosine 3',5'-cyclic monophosphate] | 0.785 |
| C[N+](C)(C)CC(O)CC(=O)[O-] (racemic) [DL-Carnitine HCl] | 5.65 |
| CC(C)C(=O)c1c(C(C)C)nn2ccccc12 [Ibudilast] | -0.858 |
| C[N+](C)(C)C[C@H](O)CC(=O)[O-] [L-carnitine] | 3.02 |
| CC[C@]1(O)C[C@@H]2CN(CCc3c([nH]c4ccccc34)[C@@](C(=O)OC)(c3cc4c(cc3OC)N(C)[C@H]3[C@@](O)(C(=O)OC)[C@H](OC(C)=O)[C@]5(CC)C=CCN6CC[C@]43[C@@H]65)C2)C1 [Vinblastine sulfate salt] | < -3.85 |
| CC[C@]1(O)C[C@@H]2CN(CCc3c([nH]c4ccccc34)[C@@](C(=O)OC)(c3cc4c(cc3OC)N(C)[C@H]3[C@@](O)(C(=O)OC)[C@H](OC(C)=O)[C@]5(CC)C=CCN6CC[C@]43[C@@H]65)C2)C1 [Vinblastine] | -6.35 |
| CCN(CCCc1ccccc1)CCCc1ccccc1 [Alverine Citrate] | 12.2 |
| Nc1nccc2c1ncn2[C@@H]1O[C@H](CO)[C@@H](O)[C@H]1O [3-deazaadenosine] | -1.07 |
| N[C@@H](Cc1ccc(F)cc1)C(=O)O [p-Fluoro-L-phenylalanine] | 0.816 |
| O=C(Nc1ccc2[nH]ncc2c1)C1CCC1 [Rhodblock 6] | -1.53 |
| Cn1cnc(N)c2ncnc1-2 [3-Methyladenine] | 2.88 |
| CCCCC#Cc1nc(NC)c2ncn([C@@H]3O[C@H](CO)[C@@H](O)[C@H]3O)c2n1 | -1.1 |
| CCOc1ncc(S(=O)(=O)N2CCN(CC)CC2)cc1-c1nc(=O)c2nn(CCOC)c(CC)c2[nH]1 [Gisadenafil besylate salt] | 0.47 |
| CC(C)=CCC/C(C)=C/COc1ccc2ccc(=O)oc2c1 [Auraptene] | -0.783 |
| COc1cc(CC(=O)O)ccc1O [4-Hydroxy-3-methoxyphenylacetic acid] | 0.45 |
| O=S(=O)(O)CCSSCCS(=O)(=O)O [Dimesna] | 1.85 |

| SMILES | MBP+ mature oligodendrocyte number |
| --- | --- |
| CCCC(C(=O)OCCN(CC)CC)(c1ccccc1)c1ccccc1 [SKF-525A hydrochloride] | -3.42 |
| CO[C@H]1C(=O)[C@]2(C)[C@@H](OC)C[C@H]3OC[C@@]3(OC(C)=O)[C@H]2[C@H](OC(=O)c2ccccc2)[C@]2(O)C[C@H](OC(=O)[C@H](O)[C@@H](NC(=O)OC(C)(C)C)c3ccccc3)C(C)=C1C2(C)C [Cabazitaxel] | -3.71 |
| Clc1ccc(COC(Cn2ccnc2)c2ccc(Cl)cc2Cl)cc1 (stereo not given) [Econazole nitrate] | 5.37 |
| Clc1ccccc1C(c1ccccc1)(c1ccccc1)n1ccnc1 [Clotrimazole] | 15.7 ± 1.2 |
| NC(=O)NO [Hydroxyurea] | 0.603 ± 0.14 |
| CCN1CCCC1CNC(=O)c1cc(S(N)(=O)=O)ccc1OC (racemic) [(±)-Sulpiride] | 1.07 |
| NC[C@H]1CC[C@H](C(=O)O)CC1 [Tranexamic Acid] | 2.68 |
| C=CCc1ccccc1OCC(O)CNC(C)C (stereo not given) [Alprenolol hydrochloride] | -0.119 |
| CC(=O)OC(C)C[N+](C)(C)C (stereo not drawn) [Acetyl-beta-methylcholine chloride] | 0.47 |
| CCCCOc1ccc(CC(=O)NO)cc1 [Bufexamac] | 2.25 |
| Cc1cc(C)cc(NC(=O)Cc2ccc(OC(C)(C)C(=O)O)cc2)c1 [Efaproxiral Sodium] | 2.86 |
| CCCCC[C@H](CC(=O)NO)C(=O)N[C@H](C(=O)N1CCC[C@H]1CO)C(C)C [Actinonin] | -0.708 |
| Cc1ccc(O)c([C@H](CCN(C(C)C)C(C)C)c2ccccc2)c1 [Tolterodine tartrate] | -2.91 |
| Cc1nc(N=Nc2ccc(S(=O)(=O)O)cc2S(=O)(=O)O)c(COP(=O)(O)O)c(C=O)c1O | -0.247 |
| CCCCCCCCCCCCCCCCO [1-Hexadecanol] | 0.491 |
| CN(C)C(=O)N=NC(=O)N(C)C [N,N,N',N'-Tetramethylazodicarboxamide] | -0.596 |
| CCN1/C(=C/C(C)=O)Sc2ccc(OC)cc21 | -3.37 ± 1.6 |
| Cc1c(O)cccc1C(=O)N[C@@H](CSc1ccccc1)[C@H](O)CN1C[C@H]2CCCC[C@H]2C[C@H]1C(=O)NC(C)(C)C [Nelfinavir mesylate hydrate] | -2.69 |
| Nc1ccn([C@@H]2O[C@H](CO)[C@@H](O)[C@H]2O)c(=O)n1 [Cytidine] | 0.883 |
| CN(C)CCC(c1ccccc1)c1ccccn1 (stereo not given) [Pheniramine maleate] | 0.61 |
| CN(C)CCC(c1ccccc1)c1ccccn1 (stereo not given) [Pheniramine Maleate] | 1.76 |
| Cc1cccc(Nc2nc(-c3ccncc3)cs2)c1 | -6.61 |
| CCOc1ccc(Cc2cc([C@@H]3O[C@H](CO)[C@@H](O)[C@H](O)[C@H]3O)ccc2Cl)cc1 [Dapagliflozin] | 1.78 |
| CN(C)CCN1C(=O)c2cccc3cc(N)cc(c23)C1=O [Amonafide] | < -6.7 |
| O[C@@H]1CO[C@H]2[C@@H]1OC[C@@H]2O [Isosorbide] | 2.1 |
| COc1ccc(/C=C2\COc3ccc(C)cc3C2=O)cc1O | -3.75 |
